# Publication PMC12820563, “FoxP3 forms a head-to-head dimer in vivo and stabilizes its multimerization on adjacent microsatellites”
# The list shows a part of the results.
# Target: T1, MBP-FoxP1dN (Mus musculus, UniProt P58462 326-579)
# T1 sequence: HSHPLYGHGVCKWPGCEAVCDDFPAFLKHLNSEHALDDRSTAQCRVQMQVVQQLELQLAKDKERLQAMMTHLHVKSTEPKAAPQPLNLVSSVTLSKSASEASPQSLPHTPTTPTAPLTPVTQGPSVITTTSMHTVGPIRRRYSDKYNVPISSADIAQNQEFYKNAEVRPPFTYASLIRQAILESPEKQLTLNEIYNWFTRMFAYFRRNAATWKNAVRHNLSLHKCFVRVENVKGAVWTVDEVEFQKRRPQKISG
# Assay: PD-seq (MBP pull-down with sequencing); 20 mM Tris-HCl pH 7.5, 100 mM NaCl, 1.5 mM MgCl2, 0.4 uM protein, 0.1 uM dsDNA library, 30 min, room temperature, amylose pull-down; high values mean tight binding
# Details: protein: recombinant; tags: His6-MBP; chain copies: 2; dsDNA, one strand shown
# Summary of the method: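 The N-terminus-lacking fragment of mouse FoxP3 or FoxP1 carried a His6-MBP tag and was expressed in E. coli. At 0.4 µM it was incubated with 0.1 µM Klenow-filled degenerate double-stranded DNA library for 30 min at room temperature in Tris pH 7.5 buffer with NaCl and MgCl2, and complexes were caught on amylose resin, washed three times, released with proteinase K, PCR-barcoded and Illumina-sequenced. Binding is reads-per-million enrichment of pull-down over input with replicates pooled.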
row,Sequence,binding signal
1,GATGATTGTTCTCCCAGCTGATGAATTGACAGTTTCGAGTAAACAAATTTTCCTAATCTTTCTGTTCAAGCGCCATCTAC,1.26 RPM ratio (pull-down/input)
2,GATGATTGTTCTCCCAGCTGATGAATTTCACTGTTCGAGTAAACAAATTTTCCTAATCTTTCTGTTCAAGCGCCATCTAC,0.875 RPM ratio (pull-down/input)
3,GATGATTGTTCTCCCAGCTGATGAATTACGAGCTTCGAGTAAACAAATTTTCCTAATCTTTCTGTTCAAGCGCCATCTAC,0.95 RPM ratio (pull-down/input)
4,GATGATTGTTCTCCCAGCTGATGAATTCATCTCCTCGAGTAAACAAATTTTCCTAATCTTTCTGTTCAAGCGCCATCTAC,0.806 RPM ratio (pull-down/input)
5,GATGATTGTTCTCCCAGCTGATGAATTCGCCCTGTCGAGTAAACAAATTTTCCTAATCTTTCTGTTCAAGCGCCATCTAC,0.8 RPM ratio (pull-down/input)
6,GATGATTGTTCTCCCAGCTGATGAATTACTGTATTCGAGTAAACAAATTTTCCTAATCTTTCTGTTCAAGCGCCATCTAC,1.39 RPM ratio (pull-down/input)
7,GATGATTGTTCTCCCAGCTGATGAATTTGGTATCTCGAGTAAACAAATTTTCCTAATCTTTCTGTTCAAGCGCCATCTAC,0.989 RPM ratio (pull-down/input)
8,GATGATTGTTCTCCCAGCTGATGAATTACTAATATCGAGTAAACAAATTTTCCTAATCTTTCTGTTCAAGCGCCATCTAC,1.73 RPM ratio (pull-down/input)
9,GATGATTGTTCTCCCAGCTGATGAATTGAAGCACTCGAGTAAACAAATTTTCCTAATCTTTCTGTTCAAGCGCCATCTAC,0.871 RPM ratio (pull-down/input)
10,GATGATTGTTCTCCCAGCTGATGAATTATAGAAGTCGAGTAAACAAATTTTCCTAATCTTTCTGTTCAAGCGCCATCTAC,0.881 RPM ratio (pull-down/input)
11,GATGATTGTTCTCCCAGCTGATGAATTATCGGTTTCGAGTAAACAAATTTTCCTAATCTTTCTGTTCAAGCGCCATCTAC,1 RPM ratio (pull-down/input)
12,GATGATTGTTCTCCCAGCTGATGAATTCGAAGTATCGAGTAAACAAATTTTCCTAATCTTTCTGTTCAAGCGCCATCTAC,0.963 RPM ratio (pull-down/input)
13,GATGATTGTTCTCCCAGCTGATGAATTTGGGAGCTCGAGTAAACAAATTTTCCTAATCTTTCTGTTCAAGCGCCATCTAC,0.761 RPM ratio (pull-down/input)
14,GATGATTGTTCTCCCAGCTGATGAATTTAGGTATTCGAGTAAACAAATTTTCCTAATCTTTCTGTTCAAGCGCCATCTAC,1.13 RPM ratio (pull-down/input)
15,GATGATTGTTCTCCCAGCTGATGAATTGCTGGGCTCGAGTAAACAAATTTTCCTAATCTTTCTGTTCAAGCGCCATCTAC,0.87 RPM ratio (pull-down/input)
16,GATGATTGTTCTCCCAGCTGATGAATTGGTGGAGTCGAGTAAACAAATTTTCCTAATCTTTCTGTTCAAGCGCCATCTAC,0.861 RPM ratio (pull-down/input)

row,Sequence,binding signal
1,GATGATTGTTCTCCCAGCTGATGAATTCATCGCGTCGAGTAAACAAATTTTCCTAATCTTTCTGTTCAAGCGCCATCTAC,0.951 RPM ratio (pull-down/input)
2,GATGATTGTTCTCCCAGCTGATGAATTCCATGCGTCGAGTAAACAAATTTTCCTAATCTTTCTGTTCAAGCGCCATCTAC,0.952 RPM ratio (pull-down/input)
3,GATGATTGTTCTCCCAGCTGATGAATTCGCTATGTCGAGTAAACAAATTTTCCTAATCTTTCTGTTCAAGCGCCATCTAC,0.819 RPM ratio (pull-down/input)
4,GATGATTGTTCTCCCAGCTGATGAATTCACGCAGTCGAGTAAACAAATTTTCCTAATCTTTCTGTTCAAGCGCCATCTAC,1.02 RPM ratio (pull-down/input)
5,GATGATTGTTCTCCCAGCTGATGAATTTGCCGGTTCGAGTAAACAAATTTTCCTAATCTTTCTGTTCAAGCGCCATCTAC,0.889 RPM ratio (pull-down/input)
6,GATGATTGTTCTCCCAGCTGATGAATTATGTGATTCGAGTAAACAAATTTTCCTAATCTTTCTGTTCAAGCGCCATCTAC,1.13 RPM ratio (pull-down/input)
7,GATGATTGTTCTCCCAGCTGATGAATTCCATCAATCGAGTAAACAAATTTTCCTAATCTTTCTGTTCAAGCGCCATCTAC,0.963 RPM ratio (pull-down/input)
8,GATGATTGTTCTCCCAGCTGATGAATTGTTGGTCTCGAGTAAACAAATTTTCCTAATCTTTCTGTTCAAGCGCCATCTAC,1.66 RPM ratio (pull-down/input)
9,GATGATTGTTCTCCCAGCTGATGAATTTCCGTGTTCGAGTAAACAAATTTTCCTAATCTTTCTGTTCAAGCGCCATCTAC,0.936 RPM ratio (pull-down/input)
10,GATGATTGTTCTCCCAGCTGATGAATTATCCTCCTCGAGTAAACAAATTTTCCTAATCTTTCTGTTCAAGCGCCATCTAC,0.979 RPM ratio (pull-down/input)
11,GATGATTGTTCTCCCAGCTGATGAATTCTGTCCATCGAGTAAACAAATTTTCCTAATCTTTCTGTTCAAGCGCCATCTAC,0.857 RPM ratio (pull-down/input)
12,GATGATTGTTCTCCCAGCTGATGAATTTGAAGGGTCGAGTAAACAAATTTTCCTAATCTTTCTGTTCAAGCGCCATCTAC,0.789 RPM ratio (pull-down/input)
13,GATGATTGTTCTCCCAGCTGATGAATTTCAGGTATCGAGTAAACAAATTTTCCTAATCTTTCTGTTCAAGCGCCATCTAC,0.919 RPM ratio (pull-down/input)
14,GATGATTGTTCTCCCAGCTGATGAATTTCACAAGTCGAGTAAACAAATTTTCCTAATCTTTCTGTTCAAGCGCCATCTAC,0.872 RPM ratio (pull-down/input)
15,GATGATTGTTCTCCCAGCTGATGAATTGTCGGTTTCGAGTAAACAAATTTTCCTAATCTTTCTGTTCAAGCGCCATCTAC,0.995 RPM ratio (pull-down/input)
